# Source: PubChem BioAssay AID1508624 (National Center for Advancing Translational Sciences (NCATS), 2021)
# Hit rate of the full screen: of about 48,000 compounds, about 120 (0.25%) were called active. Not shown: some 4% with an inconclusive outcome. Calls follow the shape of the dose curve; as a rule, active = well fitted activation curve with a large enough effect; inconclusive = small, poorly fitted or top-dose-only effect, or another doubt; inactive = no such curve, though single readings can be large or run the other way. Some of the results follow.
# Experiment: Primary qHTS for Identification of Small Molecule Activators of Huntingtin-Antisense Promoter Activity; also: nearly all actives have a fitted effect of over 55% in size
# Details: HEK293 HTT-AS promoter firefly luciferase reporter (activity 0% = vehicle and -100% = no light), 24 h; series mostly up to 57.5 µM; activity change, positive = activation: at the top concentration
# In short: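 Firefly luciferase readout (Dual-Glo, 10 min RT) after 24 h, 37 °C compound exposure (final up to 57.5 uM) of HEK293 reporter cells cultured 24 h beforehand; PTC124 at 50 uM final as control inhibitor; activity scaled vehicle 0%, zero RLU -100%.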
row,SMILES,"activity change, positive = activation"
1,Cc1cccc(N2CCN(C(=O)c3cnn(-c4ccccc4Cl)c3C3CCN(C(=O)OC(C)(C)C)CC3)CC2C)c1 (stereo unspecified),inactive: -7.07%
2,COc1ccc(S(=O)(=O)NCCc2sc(-c3cccnc3)nc2C)c(F)c1,inactive: -5.66%
3,CCc1ccc(C2c3c(oc4ccc(F)cc4c3=O)C(=O)N2CCc2ccc(OC)cc2)cc1 (stereo unspecified),inactive: -10.1%
4,CC1CCc2c(sc3nnn(CCCCOc4ccc(Cl)cc4)c(=O)c23)C1 (stereo unspecified),inactive: 0.288%
5,COc1ccc(CNCCCSc2nnnn2-c2ccccc2)cc1,inactive: -17.2%
6,Cc1ccc(CNC(=O)Cn2c(=O)ccc3cc(S(=O)(=O)N4CCC(C)CC4)ccc32)cc1,inactive: -30.9%
7,COc1ccc(-c2cc(C(=O)NC(C)c3ccccc3)c3cc(C(C)C)ccc3n2)cc1 (stereo unspecified),inactive: 0%
8,CCOC(=O)c1c(NC(=O)c2cc(OCC)c(OCC)c(OCC)c2)sc2c1CCCCC2,inactive: -0.251%
9,CCN(CC)CCNC(=O)C(=O)NCC(c1cccnc1)N1CCN(c2ccc(F)cc2)CC1 (stereo unspecified),inactive: -4.57%
10,CCc1cccc(CC)c1NC(=O)C1CCC(CNS(=O)(=O)c2cccc3nsnc23)CC1 (stereo unspecified),inactive: -21.6%
11,COc1ccc2cc3cc(C(=O)Nc4cc(C)c(Cl)cc4OC)oc3nc2c1,inactive: 0.331%
12,COc1ccc(NC(=O)CSc2oc(-c3ccc(F)cc3)nc2S(=O)(=O)c2ccc(C)cc2)c(OC)c1,inactive: -4.78%
13,CC(=O)c1cccc(NS(=O)(=O)c2cc(-c3onc(C)c3C)ccc2C)c1,inactive: -48.2%
14,CCc1cc2c(cc1N1CCC(N3CCOCC3)CC1)C(C)(C)c1[nH]c3cc(C#N)ccc3c1C2=O,inactive: 0.979%
15,COc1cc(Cl)c(NC(=O)c2cc(S(=O)(=O)N3CCCCC3)c[nH]2)c(OC)c1,inactive: -27.6%
16,Cc1sc2c(c1C)c(=O)n(-c1ccc(Cl)cc1)c(=O)n2Cc1cc(=O)n2cc(Br)ccc2n1,inactive: 8.11%
17,CCOC(=O)c1c(S(=O)(=O)N2CCCC(C(=O)NCc3ccccc3Cl)C2)c(C)n(C)c1C (stereo unspecified),inactive: 1.29%
18,COc1cc(NC(=O)C2CCN(S(=O)(=O)c3ccc4c(c3)CCCC(=O)N4)CC2)cc(OC)c1,inactive: -19%
19,CCOc1ccccc1NC(=O)CSc1nc2c(sc3ccccc32)c(=O)n1CCCC(=O)NC1CCCC1,inactive: -25.1%
20,Cc1cccc(NC(=O)c2ccc3c(O)c(S(=O)(=O)c4ccccc4)c(=O)[nH]c3c2)c1C,inactive: -10.2%
21,O=C(Nc1ccc2nc(SCC(=O)N3CCc4ccccc43)sc2c1)c1cccc(F)c1,inactive: -28.5%
22,Cc1ccccc1-c1nc(CS(=O)(=O)CC(=O)NCCc2ccccc2)c(C)o1,inactive: -29.4%
23,Cc1ccc(C(=O)N2CCc3cc(CNC(=O)c4ccc(Br)cc4)ccc32)cc1,inactive: -43.7%

row,SMILES,"activity change, positive = activation"
1,Clc1cc(Cl)cc(CNc2ncncc2-c2ccc3c(c2)OCO3)c1,inactive: -32.3%
2,COCCNC(=O)CCn1c(=O)c2cc(OC)c(OC)cc2n(CC(=O)Nc2ccccc2C)c1=O,inactive: -2.76%
3,CS(=O)(=O)NCC(c1ccco1)N1CCN(c2ccc(F)cc2)CC1 (stereo unspecified),inactive: -10.1%
4,O=S(=O)(c1ccc(-c2cc(C(F)(F)F)on2)s1)N1CCN(c2ccccc2)CC1,inactive: -4.67%
5,COc1ccc(S(=O)(=O)N2CCN(Cc3ccc4c(c3)OCO4)CC2)cc1C,inactive: -2.2%
6,CCOC(=O)c1cnc2c(Cl)cc(Cl)cc2c1Nc1cc(C(=O)O)ccc1C,inactive: -26.4%
7,Cc1cccc(C)c1NC(=O)C(=O)NCC(c1ccc2c(c1)OCO2)N1CCOCC1 (stereo unspecified),inactive: -17%
8,Cc1c(Cl)cccc1NC(=O)CNS(=O)(=O)c1cccs1,inactive: -2.25%
9,Cc1nc2sccn2c(=O)c1S(=O)(=O)Nc1ccc(N2CCOCC2)cc1,inactive: -12.5%
10,Cc1cc(=O)[nH]c2nnc(SCc3c(F)cccc3Cl)n12,inactive: -3.49%
11,CCOc1ccc2c(c1)sc1nc(=O)n(-c3ccc(Cl)c(Cl)c3)c(=O)n12,inactive: 24.1%
12,Cc1ccc(OCc2nc(-c3ccc(C(=O)N4CCN(c5cccc(C(F)(F)F)c5)CC4)cc3)oc2C)cc1,inactive: -28.6%
13,CCOC(=O)CCn1cnc2onc(-c3cc(OC)ccc3Cl)c2c1=O,inactive: -14.7%
14,COc1ccc(N(CC(C)C)S(=O)(=O)c2nnc(NC(=O)c3cccs3)s2)cc1,inactive: -29.2%
15,CSc1cccc(NC(=O)C2CCN(S(=O)(=O)c3ccc4c(c3)CCCN4C(=O)C3CCC3)CC2)c1,inactive: -20.8%
16,CCCCCCCCCCCCCCC[C@H](O)[C@@H](N)CO,inactive: -6.98%
17,Cc1cc(C)n(-c2nc3cc(Cl)ccc3nc2Nc2ccc(C)c(F)c2)n1,inactive: 13.2%
18,CCn1ccc2cc(S(=O)(=O)N3CCC(C(=O)NCc4cccc(Cl)c4)CC3)ccc21,inactive: -15.9%
19,Cc1cc(C)c(NC(=O)c2cc(S(=O)(=O)NCCC3=CCCCC3)ccc2F)c(C)c1,inactive: -34.5%
20,Cc1ccc(-n2ncc(C(=O)NCCN3CCCC3)c2C2CCN(C(=O)OC(C)(C)C)CC2)cc1,inactive: -13.2%
21,CCOc1ccc(N(C)S(=O)(=O)c2c(C(=O)N3CCC(C)CC3)c(C)n(C)c2C)cc1,inactive: -15%
22,Cc1cccc(-n2ncc(C(=O)N3CCN(Cc4ccccc4)CC3)c2C2CCN(C(=O)OC(C)(C)C)CC2)c1,inactive: -28.3%
23,Cc1ccc(NC(=O)Cn2nnc3sc4c(c3c2=O)CCC(C)C4)cc1 (stereo unspecified),inactive: -11%

row,SMILES,"activity change, positive = activation"
1,COc1ccc(Cn2c(CCC(=O)Nc3ccc(C)cc3)nc3cccnc32)cc1,inactive: -22.7%
2,CCOc1ccccc1NC(=O)N1c2ccccc2Sc2ccccc21,inactive: -24.1%
3,COCCCn1c(=N)c(C(=O)NCc2ccco2)cc2c(=O)n3cccc(C)c3nc21,inactive: -6.12%
4,CCc1ccccc1NC(=O)Nc1cc(C(=O)NCc2cccc(F)c2)ccc1N1CCCC1,inactive: -0.164%
5,CCOC(=O)c1c(NC(=O)COc2ccc(Br)cc2)sc2c1CCCC2,inactive: 6.5%
6,CCc1ccc(S(=O)(=O)c2nnn3c2nc(Nc2ccc(C)c(Cl)c2)c2sccc23)cc1,inactive: -4.27%
7,O=C(Cn1ncn2nc(-c3cccs3)cc2c1=O)NCc1ccc(Cl)cc1,inactive: 4.38%
8,Cc1oc(-c2cccc(Cl)c2)nc1CN1CCCC(C(=O)NCCc2ccc(Cl)cc2)C1 (stereo unspecified),inactive: -41.8%
9,CCn1c(SCc2cccc(Br)c2)nnc1-c1nonc1NC(C)=O,inactive: -33.1%
10,CC(C)CNC(=O)C(=O)Nc1c2c(nn1-c1ccccc1)CS(=O)(=O)C2,inactive: -13.4%
11,CC(=O)Nc1cc(C(=O)NCc2ccc(C)cc2)ccc1S(=O)(=O)c1ccc(Cl)cc1,inactive: -18.7%
12,CCOC(=O)CN1C(C(=O)c2ccccc2)=C(OC(=O)C(C)(C)C)c2ccccc2S1(=O)=O,inactive: -17.9%
13,CSc1cccc(NC(=O)Cn2c(=O)n(Cc3ccccc3)c(=O)c3sc4ccccc4c32)c1,inactive: -11.9%
14,O=C(CSc1oc(-c2ccccc2)nc1S(=O)(=O)c1ccc(Cl)cc1)NC1CCCCC1,inactive: 8.61%
15,CCCc1nnc(NC(=O)Cc2coc3ccc(C(C)C)cc23)s1,inactive: -9.55%
16,COc1ccc(-n2nnc(-c3nsc(NC(=O)c4ccc(C)c(C)c4)n3)c2C)cc1Cl,inactive: -3.23%
17,CC(C)COC(=O)Cn1nnc2sc(-c3ccccc3)cc2c1=O,inactive: -3.79%
18,COCCCNC(=O)CSc1nc2cc3c(cc2c(=O)n1CCCCCC(=O)NCc1ccc(OC)cc1)OCO3,inactive: -11.4%
19,Cc1cc(C)c(NS(=O)(=O)c2cc(-c3onc(C)c3C)ccc2C)c(C)c1,inactive: -26.1%
20,CC1CCN(C(=O)c2ccc3c(c2)N(Cc2ccccc2)C(=O)c2ccccc2S3(=O)=O)CC1,inactive: -25.5%
21,Cc1ccc(NC(=O)c2cnc(SCC(=O)N3CCOCC3)n(C)c2=O)cc1C,inactive: -36.9%
22,O=C(CN1CCCN(S(=O)(=O)c2ccc(Br)cc2)CC1)Nc1cccc(C(F)(F)F)c1,inactive: -31.9%
23,O=C(Nc1cccc(C(F)(F)F)c1)c1cc(S(=O)(=O)N2CCCC2)c[nH]1,inactive: -14.9%

row,SMILES,"activity change, positive = activation"
1,Cc1cccc(N2CCN(C(=O)c3ccc4c(Cl)c5c(nc4c3)CCCC5)CC2C)c1 (stereo unspecified),inactive: -12.1%
2,COc1ccc(NC(=O)Cn2c(=O)c3cc(Cl)ccc3n3nncc23)cc1,inactive: -18.4%
3,CC1(C)OC[C@@H]2O[C@@]3(C(=O)O)OC(C)(C)O[C@H]3[C@@H]2O1,inactive: -5.25%
4,CCOc1ccc(C(=O)c2cn(CC(=O)Nc3ccc4c(c3)OCCO4)c3ccc(F)cc3c2=O)cc1,inactive: -13.7%
5,CC(C)CCNS(=O)(=O)c1ccc(N2CCCCS2(=O)=O)cc1,inactive: -20.9%
6,COC(=O)CN1C(=O)CSc2ccc(S(=O)(=O)Nc3ccc(C(C)=O)cc3)cc21,inactive: -13%
7,CN(C(=O)CSc1nc(C2CCCC2)nc2c1c(=O)n(C)c(=O)n2C)c1ccccc1,inactive: -37.4%
8,Cc1cccc(C)c1OC(=O)CSc1nnc(CNC(=O)c2ccccc2)o1,inactive: -23.9%
9,COc1ccc(NC(=O)c2oc3ccccc3c2NC(=O)C23CC4CC(CC(C4)C2)C3)c(OC)c1,inactive: -1.18%
10,COc1ccc2c(c1)c(CC(=O)Nc1ccc(C(C)=O)cc1)c(C)n2C(=O)c1ccc(Cl)cc1,inactive: -5.02%
11,COc1ccc(S(=O)(=O)NCCS(=O)(=O)N2CCN(c3ccccc3)CC2)cc1OC,inactive: -14.8%
12,Cc1ccc(NC(=O)c2oc3ccccc3c2NC(=O)c2ccc(F)c(F)c2)cc1,inactive: -6.25%
13,CCc1ccc(NC(=O)CSc2nc3c(oc4ccccc43)c(=O)n2-c2cccc(C)c2)cc1,inactive: -18%
14,CCc1cccc(CC)c1NC(=O)C(Cc1ccccc1)NS(=O)(=O)c1cccc2nsnc12 (stereo unspecified),inactive: -21.9%
15,Cc1ccc(NC(=O)c2ccc(CN3CCN(C)CC3)cc2)cc1Nc1nccc(-c2cccnc2)n1,inactive
16,Cc1ccc(CNC(=O)CCCCCn2c(=O)c3sccc3n(CC(=O)Nc3ccc(C)c(F)c3)c2=O)cc1,inactive: 1.49%
17,CC(C)CN(CCCNC(=O)c1cc(=O)[nH]c2ccc(S(=O)(=O)N3CCCC3)cc12)CC(C)C,inactive: -18.4%
18,CCc1cnc2c(c1SCc1ccccc1C)c(=O)n(C)c(=O)n2C,inactive: -11.2%
19,COc1cccc(C(=O)NC(=NCCc2c[nH]c3ccc(OC)cc23)Nc2nc(C)cc(C)n2)c1,inactive: -40.6%
20,CN1CCc2c(sc(NC(=O)CSc3ccc(F)cc3)c2-c2nc3ccccc3s2)C1,inactive: -19%
21,CCN1C(C(=O)c2ccccc2)=C(OC(=O)COc2ccc(OC)cc2)c2ccccc2S1(=O)=O,inactive: -31.5%
22,CCN(Cc1ccccc1)Cc1c(O)ccc2c(=O)c(-c3ccc(Cl)cc3)coc12,inactive: -7.72%
